From the supplement of paper PMC8728848
Some of the results follow.

Columns and labels:
Assay in all cases: glycan array binding signal (z-score within array); higher = stronger binding
Details in all cases: glycan notation: IUPAC condensed, linker removed; mutation: E41G
[1] = target: Neu5Ac(a2-3)Gal(b1-4)GlcNAc(b1-3)[Neu5Ac(a2-3)Gal(b1-4)GlcNAc(b1-6)]GalNAc
In short: (§1)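 From the Consortium for Functional Glycomics database, 3228 arrays were curated, keeping only those whose protein sequence was available. Binding is given as a within-array Z-score averaged across arrays sharing a protein sequence and across linkers. Negative Z-scores can be read as non-binding.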

[2] = target: Neu5Ac(a2-3)Gal(b1-4)GlcNAc(b1-6)GalNAc
In short: as §1

[3] = target: Neu5Ac(a2-3)Gal(b1-4)GlcNAc(b1-6)[Gal(b1-3)]GalNAc
In short: as §1

[4] = target: Neu5Ac(a2-3)Gal(b1-4)GlcNAc(b1-6)[Neu5Ac(a2-3)Gal(b1-3)]GalNAc
In short: as §1

[5] = target: Neu5Ac(a2-3)Gal(b1-4)GlcNAc6S
In short: as §1

[6] = target: Neu5Ac(a2-3)Gal(b1-4)[Fuc(a1-3)]GlcNAc
In short: as §1

[7] = target: Neu5Ac(a2-3)Gal(b1-4)[Fuc(a1-3)]GlcNAc(b1-2)Man
In short: as §1

[8] = target: Neu5Ac(a2-3)Gal(b1-4)[Fuc(a1-3)]GlcNAc(b1-3)Gal
In short: as §1

[9] = target: Neu5Ac(a2-3)Gal(b1-4)[Fuc(a1-3)]GlcNAc(b1-3)Gal(b1-4)GlcNAc
In short: as §1

[10] = target: Neu5Ac(a2-3)Gal(b1-4)[Fuc(a1-3)]GlcNAc(b1-3)Gal(b1-4)[Fuc(a1-3)]GlcNAc(b1-3)Gal(b1-4)[Fuc(a1-3)]GlcNAc
In short: as §1

[11] = target: Neu5Ac(a2-3)Gal(b1-4)[Fuc(a1-3)]GlcNAc(b1-3)GalNAc
In short: as §1

[12] = target: Neu5Ac(a2-3)Gal(b1-4)[Fuc(a1-3)]GlcNAc(b1-6)[Gal(b1-3)]GalNAc
In short: as §1

[13] = target: Neu5Ac(a2-3)Gal(b1-4)[Fuc(a1-3)]GlcNAc(b1-6)[Neu5Ac(a2-3)Gal(b1-3)]GalNAc
In short: as §1

[14] = target: Neu5Ac(a2-3)Gal(b1-4)[Fuc(a1-3)]GlcNAc6S
In short: as §1

[15] = target: Neu5Ac(a2-3)Gal6S(b1-4)GlcNAc
In short: as §1

[16] = target: Neu5Ac(a2-3)Gal6S(b1-4)[Fuc(a1-3)]GlcNAc
In short: as §1

Neu5Ac(a2-3)GalNAc = target: Neu5Ac(a2-3)GalNAc
In short: as §1

[17] = target: Neu5Ac(a2-3)GalNAc(b1-4)GlcNAc
In short: as §1

[18] = target: Neu5Ac(a2-3)[GalNAc(b1-4)]Gal(b1-4)Glc
In short: as §1

[19] = target: Neu5Ac(a2-3)[GalNAc(b1-4)]Gal(b1-4)GlcNAc
In short: as §1

[20] = target: Neu5Ac(a2-3)[GalNAc(b1-4)]Gal(b1-4)GlcNAc(b1-3)GalNAc
In short: as §1

[21] = target: Neu5Ac(a2-3)[Neu5Ac(a2-6)]GalNAc
In short: as §1

Neu5Ac(a2-6)Gal = target: Neu5Ac(a2-6)Gal
In short: as §1

B1: CVN-E41G (protein)
chain: MHHHHHHENLYFQSGNFSQACYNSAIQGSVLTSTCIRTNGGYNTSSIDLNSVIGNVDGSLKWQGSNFIETCRNTQLAGSSELAAECKTRAQQFVSTKINLDDHIAAIDGTLKYE
How did the “glycan array binding signal (z-score)” value [1] turn out when B1 was run?
The value was -0.113.

What about the “glycan array binding signal (z-score)” value [2] of the same binder?
Its value is -0.097.

And the “glycan array binding signal (z-score)” value [3]?
Its value is 0.198.

And the “glycan array binding signal (z-score)” value [4]?
Its value is -0.174.

And the “glycan array binding signal (z-score)” value [5]?
Its value is -0.145.

And the “glycan array binding signal (z-score)” value [6]?
Its value is -0.179.

What about the “glycan array binding signal (z-score)” value [7] of the same binder?
The value was -0.128.

And the “glycan array binding signal (z-score)” value [8]?
The value was -0.183.

What about the “glycan array binding signal (z-score)” value [9] of the same binder?
The value was -0.158.

And the “glycan array binding signal (z-score)” value [10]?
Its value is -0.063.

What about the “glycan array binding signal (z-score)” value [11] of the same binder?
The value was -0.13.

What about the “glycan array binding signal (z-score)” value [12] of the same binder?
Its value is -0.135.

What about the “glycan array binding signal (z-score)” value [13] of the same binder?
Its value is -0.109.

What about the “glycan array binding signal (z-score)” value [14] of the same binder?
Its value is -0.157.

What about the “glycan array binding signal (z-score)” value [15] of the same binder?
Its value is -0.171.

What about the “glycan array binding signal (z-score)” value [16] of the same binder?
Its value is -0.196.

And the “glycan array binding signal (z-score)” value (Neu5Ac(a2-3)GalNAc)?
The value was -0.164.

What about the “glycan array binding signal (z-score)” value [17] of the same binder?
Its value is -0.147.

What about the “glycan array binding signal (z-score)” value [18] of the same binder?
The value was -0.177.

What about the “glycan array binding signal (z-score)” value [19] of the same binder?
The value was -0.187.

And the “glycan array binding signal (z-score)” value [20]?
Its value is -0.159.

What about the “glycan array binding signal (z-score)” value [21] of the same binder?
Its value is -0.12.

What about the “glycan array binding signal (z-score)” value (Neu5Ac(a2-6)Gal) of the same binder?
Its value is -0.168.
